Tests used:
[1] = biological target: T1, APP-TAP-AICD (human, UniProt P05067); test: streptavidin purification of APP-TAP-AICD from brain homogenate; iTRAQ 116/114, transgenic mouse 75 vs control mouse 72; MALDI-TOF/TOF;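 further: relative protein abundance in the transgenic versus control pull-down, limited to proteins with high quality scores and above-average enrichment, without full normalization across the whole measurement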
[2] = biological target: T1, APP-TAP-AICD; test: streptavidin purification of APP-TAP-AICD from brain homogenate; LTQ-FT semiquantitative method, transgenic mouse 75 vs control mouse 72

B1: Hemoglobin alpha chain (other, mouse, UniProt P01942 2-142, looked up)
chain: VLSGEDKSNIKAAWGKIGGHGAEYGAEALERMFASFPTTKTYFPHFDVSHGSAQVKGHGKKVADALASAAGHLDDLPGALSALSDLHAHKLRVDPVNFKLLSHCLLVTLASHHPADFTPAVHASLDKFLASVSTVLTSKYR
[1]
  iTRAQ ratio: 5.96

B2: Hemoglobin, beta adult major chain (13 days embryo liver cDNA, RIKEN clone 2500004H04 product) (other, mouse, UniProt P02088 2-147, looked up)
chain: VHLTDAEKAAVSCLWGKVNSDEVGGEALGRLLVVYPWTQRYFDSFGDLSSASAIMGNAKVKAHGKKVITAFNDGLNHLDSLKGTFASLSELHCDKLHVDPENFRLLGNMIVIVLGHHLGKDFTPAAQAAFQKVVAGVATALAHKYH
notes: also called Q9CY54_MOUSE
[2]
  probability that this protein is enriched: 0.88

— patent publication US20100169988A1 (published 2010)
